# Reference: patent publication US11357864B2, “Antibody drug conjugates for ablating hematopoietic stem cells” (priority 2016, dated 2022)
# T1: mouse cKIT (Mus musculus, UniProt P05532)
# T1 construct: 3.125-50 nM of cKIT receptor extracellular domains (ECD) were diluted in a 2-fold series; purchased Sino Biological Inc 50530-M08H
# T1 sequence (P05532 25-527 limits assumed): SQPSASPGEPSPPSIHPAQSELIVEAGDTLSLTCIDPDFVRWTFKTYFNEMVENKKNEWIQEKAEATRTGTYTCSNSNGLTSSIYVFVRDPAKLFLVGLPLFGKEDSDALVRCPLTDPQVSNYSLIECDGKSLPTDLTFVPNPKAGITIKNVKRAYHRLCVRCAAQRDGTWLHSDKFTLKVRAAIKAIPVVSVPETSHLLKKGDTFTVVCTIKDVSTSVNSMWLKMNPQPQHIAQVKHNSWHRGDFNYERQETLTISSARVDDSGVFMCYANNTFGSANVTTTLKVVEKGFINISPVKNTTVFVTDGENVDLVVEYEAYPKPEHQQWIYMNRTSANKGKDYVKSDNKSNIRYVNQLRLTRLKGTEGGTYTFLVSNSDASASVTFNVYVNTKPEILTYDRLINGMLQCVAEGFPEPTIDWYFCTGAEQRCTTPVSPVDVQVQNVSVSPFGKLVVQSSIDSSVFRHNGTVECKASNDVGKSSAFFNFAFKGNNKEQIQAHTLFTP
# B1: Anti-cKIT Ab4 (antibody)
# heavy: QVQLQQSGPGLVKPSQTLSLTCAISGDSVSTNSAAWNWIRQSPSRGLEWLGRIYYRSQWLNDYAVSVKSRITINPDTSKNQFSLQLNSVTPEDTAVYYCARQLTYPYTVYHKALDVWGQGTLVTVSSASTKGPSVFPLAPSSKSTSGGTAALGCLVKDYFPEPVTVSWNSGALTSGVHTFPAVLQSSGLYSLSSVVTVPSSSLGTQTYICNVNHKPSNTKVDKRV[human IgG1 Fc left out]
# light: DIELTQPPSVSVSPGQTASITCSGDNLGDQYVSWYQQKPGQAPVLVIYDDTDRPSGIPERFSGSNSGNTATLTISGTQAEDEADYYCQSTDSKSVVFGGGTKLTVLGQPKAAPSVTLFPPSSEELQANKATLVCLISDFYPGAVTVAWKADSSPVKAGVETTTPSKQSNNKYAASSYLSLTPEQWKSHRSYSCQVTHEGSTVEKTVAPTECS
# B2: Anti-cKIT Ab5 (antibody)
# heavy: QVQLVQSGAEVKKPGESLKISCKGSGYSFTNYWIAWVRQMPGKGLEWMGIIYPSNSYTLYSPSFQGQVTISADKSISTAYLQWSSLKASDTAMYYCARVPPGGSISYPAFDHWGQGTLVTVSSASTKGPSVFPLAPSSKSTSGGTAALGCLVKDYFPEPVTVSWNSGALTSGVHTFPAVLQSSGLYSLSSVVTVPSSSLGTQTYICNVNHKPSNTKVDKRV[human IgG1 Fc left out]
# light: DIELTQPPSVSVSPGQTASITCSGDNIGSIYASWYQQKPGQAPVLVIYRDNKRPSGIPERFSGSNSGNTATLTISGTQAEDEADYYCSVTDMEQHSVFGGGTKLTVLGQPKAAPSVTLFPPSSEELQANKATLVCLISDFYPGAVTVAWKADSSPVKAGVETTTPSKQSNNKYAASSYLSLTPEQWKSHRSYSCQVTHEGSTVEKTVAPTECS
# Assays:
# [1] = system: rat cKIT; assay: Cross reactivity of cKIT antibodies to rat cKIT; type: binding
# Protocol: (§1) Affinity of the antibodies to cKIT species orthologues and also to human cKIT was determined using SPR technology using a Biacore® 2000 instrument (GE Healthcare, Pittsburgh, Pa.) and with CM5 sensor chips. Briefly, HBS-P (0.01 M HEPES, pH 7.4, 0.15 M NaCl, 0.005% Surfactant P20) supplemented with 2% Odyssey® blocking buffer (Li-Cor Biosciences, Lincoln, Nebr.) was used as the running buffer for all the experiments. The immobilization level and analyte interactions were measured by response unit (RU). Pilot experiments were performed to test and confirm the feasibility of the immobilization of the anti-human Fc antibody (Catalog number BR100839, GE Healthcare, Pittsburgh, Pa.) and the capture of the test antibodies. For kinetic measurements, the experiments were performed in which the antibodies were captured to the sensor chip surface via the immobilized anti-human Fc antibody and the ability of the cKIT proteins to bind in free solution was determined. Briefly, 25 μg/ml of anti-human Fc antibody at pH 5 was immobilized on a CM5 sensor chip through amine coupling at flow rate of 5 μl/min on both flow cells to reach 10,500 RUs. 0.1-1 μg/ml of test antibodies were then injected at 10 μl/min for 1 minute. Captured levels of the antibodies were generally kept below 200 RUs. […]
# [2] = biological target: T1, mouse cKIT; assay: Cross reactivity of cKIT antibodies to mouse cKIT; type: binding
# Protocol: as §1
Molecule,Reactivity to rat cKIT [1],Reactivity to mouse cKIT [2]
B1,Yes,Yes
B2,Yes,Yes
